The supplement of paper PMC8728848
The other results are listed elsewhere or left out.

Legend:
Assay in all cases: glycan array binding signal (z-score within array); higher = stronger binding
Conditions in all cases: glycan notation: IUPAC condensed, linker removed
[1] = target: GlcNAc(b1-2)Gal(b1-3)GlcNAc
Method in brief: (§1)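 The Consortium for Functional Glycomics database supplied 3228 glycan arrays, of which those lacking an available protein sequence were dropped. The binding signal, a within-array Z-score, was averaged across arrays of the same protein sequence and across linkers. Negative scores can be read as non-binding.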

[2] = target: GlcNAc(b1-2)Man(a1-3)[GlcNAc(b1-2)Man(a1-6)]Man(b1-4)GlcNAc(b1-4)GlcNAc
Method in brief: as §1

[3] = target: GlcNAc(b1-3)Gal
Method in brief: as §1

[4] = target: GlcNAc(b1-3)Gal(b1-3)GalNAc
Method in brief: as §1

[5] = target: GlcNAc(b1-3)Gal(b1-4)Glc
Method in brief: as §1

[6] = target: GlcNAc(b1-3)Gal(b1-4)GlcNAc
Method in brief: as §1

[7] = target: GlcNAc(b1-3)Gal(b1-4)GlcNAc(b1-3)Gal(b1-4)GlcNAc
Method in brief: as §1

[8] = target: GlcNAc(b1-3)GalNAc
Method in brief: as §1

[9] = target: GlcNAc(b1-3)[GlcNAc(b1-4)][GlcNAc(b1-6)]GlcNAc
Method in brief: as §1

[10] = target: GlcNAc(b1-3)[GlcNAc(b1-6)]Gal(b1-4)GlcNAc
Method in brief: as §1

[11] = target: GlcNAc(b1-3)[GlcNAc(b1-6)]GlcNAc
Method in brief: as §1

[12] = target: GlcNAc(b1-4)Gal(b1-4)GlcNAc
Method in brief: as §1

[13] = target: GlcNAc(b1-4)GlcNAc(b1-4)GlcNAc
Method in brief: as §1

[14] = target: GlcNAc(b1-4)GlcNAc(b1-4)GlcNAc(b1-4)GlcNAc(b1-4)GlcNAc
Method in brief: as §1

[15] = target: GlcNAc(b1-4)GlcNAc(b1-4)GlcNAc(b1-4)GlcNAc(b1-4)GlcNAc(b1-4)GlcNAc
Method in brief: as §1

[16] = target: GlcNAc(b1-4)[GlcNAc(b1-6)]GalNAc
Method in brief: as §1

[17] = target: GlcNAc(b1-6)Gal(b1-4)GlcNAc
Method in brief: as §1

[18] = target: GlcNAc(b1-6)GalNAc
Method in brief: as §1

[19] = target: Kdn(a2-3)Gal(b1-3)GlcNAc
Method in brief: as §1

[20] = target: Kdn(a2-3)Gal(b1-4)GlcNAc
Method in brief: as §1

[21] = target: Man(a1-2)Man(a1-2)Man(a1-3)Man
Method in brief: as §1

[22] = target: Man(a1-2)Man(a1-2)Man(a1-3)[Man(a1-2)Man(a1-3)[Man(a1-2)Man(a1-6)]Man(a1-6)]Man(b1-4)GlcNAc(b1-4)GlcNAc
Method in brief: as §1

[23] = target: Man(a1-2)Man(a1-2)Man(a1-3)[Man(a1-2)Man(a1-6)[Man(a1-3)]Man(a1-6)]Man(b1-4)GlcNAc(b1-4)GlcNAc
Method in brief: as §1

[24] = target: Man(a1-2)Man(a1-2)Man(a1-6)[Man(a1-3)]Man
Method in brief: as §1

[25] = target: Man(a1-2)Man(a1-3)Man
Method in brief: as §1

[26] = target: Man(a1-2)Man(a1-3)[Man(a1-2)Man(a1-6)]Man
Method in brief: as §1

[27] = target: Man(a1-2)Man(a1-3)[Man(a1-3)[Man(a1-6)]Man(a1-6)]Man(b1-4)GlcNAc(b1-4)GlcNAc
Method in brief: as §1

[28] = target: Man(a1-2)Man(a1-3)[Man(a1-6)]Man(a1-6)[Man(a1-2)Man(a1-3)]Man(b1-4)GlcNAc(b1-4)GlcNAc
Method in brief: as §1

[29] = target: Man(a1-3)[Man(a1-6)]Man
Method in brief: as §1

[30] = target: Man(a1-3)[Man(a1-6)]Man(a1-6)[Man(a1-3)]Man(b1-4)GlcNAc(b1-4)GlcNAc
Method in brief: as §1

[31] = target: Man(a1-3)[Man(a1-6)]Man(b1-4)GlcNAc(b1-4)GlcNAc
Method in brief: as §1

[32] = target: Man(b1-4)GlcNAc
Method in brief: as §1

[33] = target: Neu5Ac(a2-3)Gal
Method in brief: as §1

[34] = target: Neu5Ac(a2-3)Gal(b1-3)GalNAc
Method in brief: as §1

[35] = target: Neu5Ac(a2-3)Gal(b1-3)GalNAc(b1-3)Gal(a1-4)Gal(b1-4)Glc
Method in brief: as §1

[36] = target: Neu5Ac(a2-3)Gal(b1-3)GalNAc(b1-4)[Neu5Ac(a2-3)]Gal(b1-4)Glc
Method in brief: as §1

[37] = target: Neu5Ac(a2-3)Gal(b1-3)GalNAc6S
Method in brief: as §1

B1: Alpha-agglutinin (Saccharomyces cerevisiae) (protein)
chain: MFTFLKIILWLFSLALASAININDITFSNLEITPLTANKQPDQGWTATFDFSIADASSIREGDEFTLSMPHVYRIKLLNSSQTATISLADGTEAFKCYVSQQAAYLYENTTFTCTAQNDLSSYNTIDGSITFSLNFSDGGSSYEYELENAKFFKSGPMLVKLGNQMSDVVNFDPAAFTENVFHSGRSTGYGSFESYHLGMYCPNGYFLGGTEKIDYDSSNNNVDLDCSSVQVYSSNDFNDWWFPQSYNDTNADVTCFGSNLWITLDEKLYDGEMLWVNALQSLPANVNTIDHALEFQYTCLDTIANTTYATQFSTTREFIVYQGR
glycan array binding signal (z-score) [1]: -0.133 | glycan array binding signal (z-score) [2]: -0.208 | glycan array binding signal (z-score) [3]: -0.256 | glycan array binding signal (z-score) [4]: -0.257 | glycan array binding signal (z-score) [5]: -0.231 | glycan array binding signal (z-score) [6]: -0.21 | glycan array binding signal (z-score) [7]: -0.21 | glycan array binding signal (z-score) [8]: -0.265 | glycan array binding signal (z-score) [9]: 0.203 | glycan array binding signal (z-score) [10]: -0.255 | glycan array binding signal (z-score) [11]: -0.234 | glycan array binding signal (z-score) [12]: -0.194 | glycan array binding signal (z-score) [13]: -0.242 | glycan array binding signal (z-score) [14]: -0.236 | glycan array binding signal (z-score) [15]: -0.142 | glycan array binding signal (z-score) [16]: 5.52 | glycan array binding signal (z-score) [17]: -0.236 | glycan array binding signal (z-score) [18]: -0.045 | glycan array binding signal (z-score) [19]: -0.218 | glycan array binding signal (z-score) [20]: -0.207 | glycan array binding signal (z-score) [21]: -0.245 | glycan array binding signal (z-score) [22]: -0.201 | glycan array binding signal (z-score) [23]: -0.263 | glycan array binding signal (z-score) [24]: -0.25 | glycan array binding signal (z-score) [25]: -0.252 | glycan array binding signal (z-score) [26]: -0.245 | glycan array binding signal (z-score) [27]: -0.251 | glycan array binding signal (z-score) [28]: -0.237 | glycan array binding signal (z-score) [29]: -0.258 | glycan array binding signal (z-score) [30]: -0.254 | glycan array binding signal (z-score) [31]: -0.158 | glycan array binding signal (z-score) [32]: -0.237 | glycan array binding signal (z-score) [33]: -0.263 | glycan array binding signal (z-score) [34]: -0.256 | glycan array binding signal (z-score) [35]: -0.262 | glycan array binding signal (z-score) [36]: -0.261 | glycan array binding signal (z-score) [37]: -0.159
